# Measurements reported in publication PMC12820563, “FoxP3 forms a head-to-head dimer in vivo and stabilizes its multimerization on adjacent microsatellites”.
# The other results are listed elsewhere or left out.
# Target: T1, MBP-FoxP1dN (Mus musculus, UniProt P58462 326-579)
# T1 sequence: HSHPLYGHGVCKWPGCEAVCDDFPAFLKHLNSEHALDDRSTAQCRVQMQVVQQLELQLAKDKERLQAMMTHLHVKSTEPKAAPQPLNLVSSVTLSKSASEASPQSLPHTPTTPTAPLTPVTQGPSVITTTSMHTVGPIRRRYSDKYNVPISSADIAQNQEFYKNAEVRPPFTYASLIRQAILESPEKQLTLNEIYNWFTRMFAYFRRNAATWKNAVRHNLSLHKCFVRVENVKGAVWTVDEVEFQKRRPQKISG
# Test: PD-seq (MBP pull-down with sequencing); 20 mM Tris-HCl pH 7.5, 100 mM NaCl, 1.5 mM MgCl2, 0.4 uM protein, 0.1 uM dsDNA library, 30 min, room temperature, amylose pull-down; high values mean tight binding
# Details: protein: recombinant; tags: His6-MBP; chain copies: 2; dsDNA, one strand shown
# In short: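 Binding is reads-per-million enrichment of pull-down over input, with replicates pooled. It comes from 30 min room-temperature incubation in Tris pH 7.5 buffer with NaCl and MgCl2 of 0.4 µM His6-MBP-tagged, N-terminally truncated mouse FoxP3 or FoxP1 fragment from E. coli with 0.1 µM Klenow-filled degenerate double-stranded DNA library, followed by amylose resin capture, three washes and Illumina sequencing of the released DNA.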
row,Sequence,binding signal
1,GATGATTGTTCTCCCAGCTGATGAATTAAGGATGTCGAGTAAACAAATTTTCCTAATCTTTCTGTTCAAGCGCCATCTAC,1.03 RPM ratio (pull-down/input)
2,GATGATTGTTCTCCCAGCTGATGAATTCCTTGGATCGAGTAAACAAATTTTCCTAATCTTTCTGTTCAAGCGCCATCTAC,0.821 RPM ratio (pull-down/input)
3,GATGATTGTTCTCCCAGCTGATGAATTCTTTAGCTCGAGTAAACAAATTTTCCTAATCTTTCTGTTCAAGCGCCATCTAC,0.805 RPM ratio (pull-down/input)
4,GATGATTGTTCTCCCAGCTGATGAATTCATGAGGTCGAGTAAACAAATTTTCCTAATCTTTCTGTTCAAGCGCCATCTAC,0.793 RPM ratio (pull-down/input)
5,GATGATTGTTCTCCCAGCTGATGAATTCTAAAAATCGAGTAAACAAATTTTCCTAATCTTTCTGTTCAAGCGCCATCTAC,0.995 RPM ratio (pull-down/input)
6,GATGATTGTTCTCCCAGCTGATGAATTTAAACTGTCGAGTAAACAAATTTTCCTAATCTTTCTGTTCAAGCGCCATCTAC,0.848 RPM ratio (pull-down/input)
7,GATGATTGTTCTCCCAGCTGATGAATTAGGCTGTTCGAGTAAACAAATTTTCCTAATCTTTCTGTTCAAGCGCCATCTAC,0.939 RPM ratio (pull-down/input)
8,GATGATTGTTCTCCCAGCTGATGAATTAATTAAATCGAGTAAACAAATTTTCCTAATCTTTCTGTTCAAGCGCCATCTAC,1.08 RPM ratio (pull-down/input)
9,GATGATTGTTCTCCCAGCTGATGAATTTCGCTGTTCGAGTAAACAAATTTTCCTAATCTTTCTGTTCAAGCGCCATCTAC,0.917 RPM ratio (pull-down/input)
10,GATGATTGTTCTCCCAGCTGATGAATTCAAAGAATCGAGTAAACAAATTTTCCTAATCTTTCTGTTCAAGCGCCATCTAC,0.95 RPM ratio (pull-down/input)
11,GATGATTGTTCTCCCAGCTGATGAATTTTAGTCGTCGAGTAAACAAATTTTCCTAATCTTTCTGTTCAAGCGCCATCTAC,0.965 RPM ratio (pull-down/input)
12,GATGATTGTTCTCCCAGCTGATGAATTAGTTAAGTCGAGTAAACAAATTTTCCTAATCTTTCTGTTCAAGCGCCATCTAC,0.957 RPM ratio (pull-down/input)
13,GATGATTGTTCTCCCAGCTGATGAATTTAGTCACTCGAGTAAACAAATTTTCCTAATCTTTCTGTTCAAGCGCCATCTAC,1.01 RPM ratio (pull-down/input)
14,GATGATTGTTCTCCCAGCTGATGAATTTGCTATCTCGAGTAAACAAATTTTCCTAATCTTTCTGTTCAAGCGCCATCTAC,1.08 RPM ratio (pull-down/input)
15,GATGATTGTTCTCCCAGCTGATGAATTAGAAAGGTCGAGTAAACAAATTTTCCTAATCTTTCTGTTCAAGCGCCATCTAC,0.826 RPM ratio (pull-down/input)
16,GATGATTGTTCTCCCAGCTGATGAATTCCCCAAATCGAGTAAACAAATTTTCCTAATCTTTCTGTTCAAGCGCCATCTAC,0.929 RPM ratio (pull-down/input)

row,Sequence,binding signal
1,GATGATTGTTCTCCCAGCTGATGAATTGGGTAACTCGAGTAAACAAATTTTCCTAATCTTTCTGTTCAAGCGCCATCTAC,0.837 RPM ratio (pull-down/input)
2,GATGATTGTTCTCCCAGCTGATGAATTGAAGTTTTCGAGTAAACAAATTTTCCTAATCTTTCTGTTCAAGCGCCATCTAC,0.977 RPM ratio (pull-down/input)
3,GATGATTGTTCTCCCAGCTGATGAATTAAGGCAGTCGAGTAAACAAATTTTCCTAATCTTTCTGTTCAAGCGCCATCTAC,0.906 RPM ratio (pull-down/input)
4,GATGATTGTTCTCCCAGCTGATGAATTCAAAAGGTCGAGTAAACAAATTTTCCTAATCTTTCTGTTCAAGCGCCATCTAC,0.742 RPM ratio (pull-down/input)
5,GATGATTGTTCTCCCAGCTGATGAATTGGTGTGTTCGAGTAAACAAATTTTCCTAATCTTTCTGTTCAAGCGCCATCTAC,1.34 RPM ratio (pull-down/input)
6,GATGATTGTTCTCCCAGCTGATGAATTATCCGCGTCGAGTAAACAAATTTTCCTAATCTTTCTGTTCAAGCGCCATCTAC,0.955 RPM ratio (pull-down/input)
7,GATGATTGTTCTCCCAGCTGATGAATTTCTGTGGTCGAGTAAACAAATTTTCCTAATCTTTCTGTTCAAGCGCCATCTAC,0.924 RPM ratio (pull-down/input)
8,GATGATTGTTCTCCCAGCTGATGAATTGTCTTGATCGAGTAAACAAATTTTCCTAATCTTTCTGTTCAAGCGCCATCTAC,1.02 RPM ratio (pull-down/input)
9,GATGATTGTTCTCCCAGCTGATGAATTGCTGTATTCGAGTAAACAAATTTTCCTAATCTTTCTGTTCAAGCGCCATCTAC,1.43 RPM ratio (pull-down/input)
10,GATGATTGTTCTCCCAGCTGATGAATTACTTGGCTCGAGTAAACAAATTTTCCTAATCTTTCTGTTCAAGCGCCATCTAC,0.947 RPM ratio (pull-down/input)
11,GATGATTGTTCTCCCAGCTGATGAATTATAGGACTCGAGTAAACAAATTTTCCTAATCTTTCTGTTCAAGCGCCATCTAC,0.888 RPM ratio (pull-down/input)
12,GATGATTGTTCTCCCAGCTGATGAATTAGATTGATCGAGTAAACAAATTTTCCTAATCTTTCTGTTCAAGCGCCATCTAC,0.993 RPM ratio (pull-down/input)
13,GATGATTGTTCTCCCAGCTGATGAATTGACACTTTCGAGTAAACAAATTTTCCTAATCTTTCTGTTCAAGCGCCATCTAC,1.28 RPM ratio (pull-down/input)
14,GATGATTGTTCTCCCAGCTGATGAATTTCATCTCTCGAGTAAACAAATTTTCCTAATCTTTCTGTTCAAGCGCCATCTAC,0.749 RPM ratio (pull-down/input)
15,GATGATTGTTCTCCCAGCTGATGAATTTCACGGCTCGAGTAAACAAATTTTCCTAATCTTTCTGTTCAAGCGCCATCTAC,0.843 RPM ratio (pull-down/input)
16,GATGATTGTTCTCCCAGCTGATGAATTTTAGGACTCGAGTAAACAAATTTTCCTAATCTTTCTGTTCAAGCGCCATCTAC,0.866 RPM ratio (pull-down/input)
